Test results reported in PubChem BioAssay AID463173 (ICCB-Longwood Screening Facility, Harvard Medical School, 2010).
The whole screen tested about 52,000 compounds, of which about 4,300 (8.3%) were called active. Cut-off read from the data, not from the text of the source: active = survival mostly below about 52% (no sharp cut-off); inactive = mostly above about 56%. This is one part of the list.

What follows are compounds tested on DeltatarO mutant (assay: growth inhibition of S. aureus wild type versus tarO mutant, primary screen, teichoic acid synthesis inhibitors, RN4220, OD600 (AID 463173)). Conditions: OD600, 18 h, hits give low values, screened at 18.75 µg/mL (by protocol).

| SMILES | survival |
| --- | --- |
| CC(Oc1ccc(F)cc1)C(=O)Nc1cc(-c2ccc(F)c(F)c2)no1 (configuration not stated) | inactive: 59% |
| Cc1ccc(OCC(=O)N(Cc2ccco2)C2CCS(=O)(=O)C2)cc1 (configuration not stated) | inactive: 87% |
| CCOC(=O)c1ccc(S(=O)(=O)N2CCC(C(=O)OCC)CC2)cc1 | inactive: 86% |
| CN(C)CCC(=O)c1ccc2c(c1)OCO2 | inactive: 88% |
| COc1ccccc1NC(=O)c1oc2ccccc2c1NC(=O)c1ccccc1C(F)(F)F | inactive: 82% |
| CCOc1ccccc1NC(=O)C(C)Sc1nc(-c2ccccc2)c(C#N)c(=O)[nH]1 (configuration not stated) | inactive: 80% |
| Brc1cccc(Nc2nc3nonc3nc2NCc2ccco2)c1 | active: 6% |
| Cc1cccc(NC(=O)c2sc3nc4c(cc3c2N)CN(Cc2ccccc2)CC4)c1 | inactive: 85% |
| COc1ccc(-c2cn3nc(N4CCC(C(=O)Nc5cccc(OC)c5)CC4)sc3n2)cc1 | inactive: 94% |
| CCOc1ccc(Sc2cc(C(=O)NC(C)CC)c3ccccc3n2)cc1 (configuration not stated) | inactive: 124% |
| COc1ccc(N2CCN(S(=O)(=O)c3ccc(OC)c(-c4noc(C)n4)c3)CC2)cc1 | inactive: 68% |
| O=C(Cn1ncc2c3ccccc3n(Cc3ccc(Cl)cc3)c2c1=O)NCc1cccs1 | inactive: 90% |
| Cc1nc2sc(C(=O)Nc3ccc(F)cc3)c(N)c2c(-c2ccc(Br)cc2)c1C(=O)Nc1ccc(Cl)cc1 | inactive: 80% |
| CC(C)C(=O)N1CCC(CN=CC2=C(O)CC(C)(C)CC2=O)CC1 | active: 52% |
| COC(=O)c1ccc(NC(=O)CC2C(=O)N(c3ccc(F)cc3)C(=O)N2Cc2ccc(OC)cc2)cc1 (configuration not stated) | inactive: 126% |
| Cc1cc2nc(-c3ccc(OCc4ccc(F)cc4)cc3)cc(C(F)(F)F)n2n1 | active: 34% |
| O=C(Nc1ccc(NC(=O)c2cccs2)cc1)c1cccc(Br)c1 | inactive: 98% |
| Cc1ccc(C)c(Cn2c(=O)n(Cc3ccc4c(c3)OCO4)c(=O)c3oc4ccccc4c32)c1 | inactive: 89% |
| CCCCOc1ccc(C(=O)NCCc2sc(-c3cccc(F)c3)nc2C)cc1 | inactive: 74% |
| Cc1ccc(C)n1-c1c(C(=O)NCCCN2CCN(c3ccc(F)cc3)CC2)sc2ncccc12 | inactive: 98% |
| O=C(C1CCN(S(=O)(=O)Cc2ccccc2)CC1)N1CCN(c2ccc(F)cc2)CC1 | inactive: 75% |
| Cc1ccc2c(=O)cc(C(=O)Nc3sc4c(c3C(N)=O)CCCC4)oc2c1 | inactive: 85% |

| SMILES | survival |
| --- | --- |
| Cc1ccc(Cl)cc1-n1ncc2c(NCCCn3ccnc3)ncnc21 | inactive: 81% |
| O=c1cc(-c2ccc(F)cc2)nc(SCc2nc(-c3cccc(Cl)c3)no2)[nH]1 | inactive: 71% |
| Cc1cc(NC(=O)CSc2nc3c([nH]c4ccccc43)c(=O)n2-c2ccccc2)no1 | inactive: 72% |
| O=C(C1CCCN(S(=O)(=O)c2ccc(Br)s2)C1)N1CCN(c2ccc(F)cc2)CC1 (configuration not stated) | inactive: 75% |
| CCc1ccc(NC(=O)CSc2nccn2-c2cccc(C)c2C)cc1 | inactive: 87% |
| CC1CN(C(=O)N2CCC(C(=O)NCCC3=CCCCC3)CC2)c2cc(Cl)ccc2O1 (configuration not stated) | inactive: 65% |
| Cc1ccc(C2CC(=O)N(Cc3ccccc3)c3c2c(C)nn3-c2nc(C)cc(C)n2)cc1 (configuration not stated) | inactive: 86% |
| COc1ccc(NC(=O)CSc2nc3ccncc3[nH]2)c(OC)c1 | inactive: 95% |
| CCC(C(=O)N1CCN(c2ccccc2F)CC1)n1nc(C)c2sc3ccccc3c2c1=O (configuration not stated) | inactive: 53% |
| COc1ccc(NC(=O)CCn2nc(-c3ccccc3OC)c3c(C)cc(C)nc32)cc1 | inactive: 70% |
| Cc1ccc(Cl)cc1N1CCN(C(=O)c2cccn3c(=O)c4cc(Cl)ccc4nc23)CC1 | inactive: 75% |
| Cc1ccccc1OCc1ccc(-c2nc(C#N)c(N3CCN(C)CC3)o2)o1 | inactive: 68% |
| Cc1ccc(-n2nc(C(=O)Nc3ccc(Cl)cn3)c3c4ccccc4n(C)c3c2=O)cc1 | inactive: 130% |
| CC1=C(C(=O)OCC(C)C)C(c2ccc(OCc3ccccc3)cc2)N2C(=O)CCSC2=N1 (configuration not stated) | inactive: 52% |
| COc1ccc(C2C(=O)N(C3CCCCC3)CC(=O)N2CCc2ccc(OC)c(OC)c2)cc1 (configuration not stated) | inactive: 87% |
| Cc1ccc(C)c(CN2C(=O)C3(c4ccccc42)N(c2cccc(C(F)(F)F)c2)C(=O)CS3(=O)=O)c1 (configuration not stated) | inactive: 71% |
| Cc1ccc2oc(-c3cc(NC(=O)c4ccc5c(c4)OCCO5)cc(C)c3O)nc2c1 | inactive: 89% |
| COc1cc(NC(=O)c2nc3ccccc3nc2C)cc(OC)c1OC | inactive: 84% |
| CCOC(=O)c1cc(C)n(CC2CCC(C(=O)Nc3ccc(OCC)cc3)CC2)c1C (configuration not stated) | inactive: 115% |
| NS(=O)(=O)c1ccc(Nc2nc3nonc3nc2Nc2ccc(S(N)(=O)=O)cc2)cc1 | inactive: 122% |
| CCn1c(-c2ccccc2)n[nH]c1=S | inactive: 98% |
| COc1ccc2c(c1)-c1nc(NC(=O)c3ccccc3F)sc1CC2 | active: 2% |

| SMILES | survival |
| --- | --- |
| CCN(CC)C(=O)c1sc2c(c1C)c(=O)n(-c1ccc(C)c(C)c1)c(=O)n2Cc1cc(=O)n2c(C)cccc2n1 | inactive: 49% |
| CCn1c(=O)cc(OCC(=O)NCc2ccccc2Cl)c2ccccc21 | active: 40% |
| COc1cccc(CNC(=O)C(NS(=O)(=O)c2ccc3c(c2)oc(=O)n3C)C(C)C)c1 (configuration not stated) | inactive: 93% |
| c1cc2c3c(cccc3c1)NC1(CCCCC1)N2 | inactive: 113% |
| COc1ccc(O)c(C2Nc3ccccc3-n3c(-c4ccccc4)c4c(=O)n(C)c(=O)n(C)c4c32)c1 (configuration not stated) | active: 3% |
| COc1ccc(S(=O)(=O)Nc2cccc(-c3ccc(N4CCCCCC4)nn3)c2)cc1 | inactive: 86% |
| Cc1c(C(=O)OCC2CCCCC2)[nH]c2c1C(=O)CC(c1ccc(Cl)cc1)C2 (configuration not stated) | inactive: 94% |
| Cc1cccc(NC(=O)CSc2nc(C3CCCC3)nc3c2c(=O)n(C)c(=O)n3C)c1C | inactive: 67% |
| Cc1ccc(Cn2cc(/C=C(/C#N)C(=O)Nc3cccc(Cl)c3)c3ccccc32)cc1 | inactive: 80% |
| O=C(c1ccccc1)n1nc(-c2ccco2)nc1NCc1cccs1 | inactive: 81% |
| CCOc1ccc(CN(Cc2ccco2)C(c2ccc(C(F)(F)F)cc2)c2nnnn2CCOC)cc1 (configuration not stated) | inactive: 63% |
| CCC(=O)OCc1cnc(C)c2oc(=O)c(C(=O)Nc3ccccc3C(F)(F)F)cc12 | inactive: 124% |
| O=c1cc(-c2ccccc2)nc2cc(-c3ccc(F)cc3)[nH]n12 | inactive: 115% |
| COc1cc2ccccc2cc1C(=O)Nc1cc(-c2nc3ccccc3o2)ccc1C | inactive: 111% |
| Cc1cccc(N(C)C(=O)CN(C)S(=O)(=O)c2ccc3[nH]c4c(c3c2)CCCC4)c1 | inactive: 87% |
| O=C(NCC1CCCO1)c1cc2ccccc2oc1=O (configuration not stated) | inactive: 80% |
| COc1ccc(CNC(=O)CSc2ncc3c(n2)-c2cc(Cl)ccc2N(Cc2ccccc2)S3(=O)=O)cc1OC | inactive: 80% |
| COc1ccccc1NC(=O)Cn1c(=O)n(CCc2ccccc2)c(=O)c2c3c(sc21)CN(C(C)=O)CC3 | inactive: 67% |
| Cc1nnc(SCc2nc(-c3ccc(Cl)cc3)no2)n1-c1ccc(F)cc1 | inactive: 94% |
| CCOc1ccccc1NC(=O)c1sc2nc(-c3ccc(OC)cc3)ccc2c1N | inactive: 51% |
| CCCN1CCN(CCNC(=O)Nc2cc(C)ccc2OC)CC1 | inactive: 82% |
| COc1cc2c(C(=O)Nc3ccc(C)cc3Br)cn(C)c(=O)c2cc1OC | inactive: 119% |

| SMILES | survival |
| --- | --- |
| CCC1CCCCN1CCCNC(=O)c1c(O)nc2c(C)cccn2c1=O (configuration not stated) | inactive: 79% |
| COc1ccc(-n2c(/C=C/c3cccc4ccccc34)nc3ccccc3c2=O)cc1Cl | inactive: 78% |
| COc1ccc(CC(=O)Nc2c(C(=O)Nc3ccc(F)cc3)oc3ccccc23)cc1OC | inactive: 81% |
| COc1ccc(OC)c(CCNC(=O)CN2C(=O)COc3ccc(S(=O)(=O)N4CCC(C)CC4)cc32)c1 | inactive: 67% |
| CCCCNc1nc(Oc2ccc(OCCC)nn2)nc(N(C)C)n1 | inactive: 84% |
| O=C(CCSCc1ccccc1F)N1CCN(c2ccc(Cl)cc2)CC1 | inactive: 81% |
| Cc1nn(-c2ccc(N3CCCC3)nn2)c(C)c1CCC(=O)NCc1ccccc1F | inactive: 82% |
| COc1ccc(-c2nc3ccccc3o2)cc1NC(=O)CSc1ccc(Cl)cc1 | inactive: 72% |
| CCCn1c(=O)c2sccc2n2c(CCCC(=O)Nc3ccccc3OCC)nnc12 | inactive: 72% |
| Cc1ccc(CN(C(=O)COc2ccc(C(C)C)cc2)C2CCS(=O)(=O)C2)o1 (configuration not stated) | inactive: 87% |
| COc1ccc(CC(=O)N2CC(=O)Nc3ccc(Br)cc3C2c2ccc(F)cc2)cc1 (configuration not stated) | active: 30% |
| Cc1ccccc1C(=O)Nc1nnc(S(=O)(=O)N(C)Cc2ccc(Cl)cc2)s1 | inactive: 102% |
| Cc1ccc(CNC(=O)c2nc(-c3ccc(Cl)cc3)n3c2CCCCC3)cc1 | inactive: 89% |
| N#Cc1ccccc1Cn1c(=O)n(CCCCC(=O)NCc2ccc3c(c2)OCO3)c(=O)c2ccccc21 | inactive: 94% |
| O=C(Cc1ccc(F)cc1)N1CCC(c2nc3c(nnn3Cc3ccc(F)cc3)c(=O)[nH]2)CC1 | inactive: 66% |
| COc1ccc(-n2cccc2C=C(C#N)C#N)cc1 | inactive: 97% |
| COc1ccc(OCC(=O)Nc2ccc(O)c(-c3nc4ccccc4s3)c2)cc1 | active: 43% |
| O=C(NCCSCc1ccccc1Cl)C1CCN(S(=O)(=O)Cc2ccccc2)CC1 | inactive: 62% |
| C=CCNc1ccc(C(=O)O)cc1 | inactive: 77% |
| COc1ccc(NC(=O)CSc2nnc(NC(=O)Nc3ccccc3)s2)c(OC)c1 | active: 47% |
| CCc1ccc(NC(=O)CSc2nc3ccccc3nc2Cc2ccccc2OC)cc1 | inactive: 70% |
